Assay results as given in ChEMBL document CHEMBL4888484, “Replenishing the malaria drug discovery pipeline: Screening and hit evaluation of the MMV Hit Generation Library 1 (HGL1) against asexual blood stage Plasmodium falciparum ,using a nano luciferase reporter read-out” (2022).
Out of some 150,000 compounds screened, about 540 (0.36%) showed an effect of 50% or more. The list shows a part of the results.

What follows are molecules tested on Plasmodium falciparum (assay: Primary screen in NF54 nanoGlo assay, in single point, at 2uM, 72h; a lower Z score goes with more inhibition). Settings: timepoint 72 hour.
Type: functional, Erythrocyte

Structure (SMILES) | % Inhibition | Z score
COc1ccc(-c2nn3ccn(CC(=O)NC4CCCCC4)c(=O)c3c2CO)cc1 | -11% | 1.29
COC(=O)c1ccc(CC(=O)NC[C@H]2CCCOC2)cc1 | 2% | -0.37
CCNC(=O)c1ccc(COc2ccc3c(c2)[C@H](c2cccc(F)c2)N(C(=O)C(C)C)CC3)o1 | -5% | 0.5
CC(C)=CCC[C@@]1(C)CCC(=O)N(CCc2nc3ccccc3c(=O)[nH]2)C1 | 6% | -0.83
COc1ccccc1-c1c(C#N)c(N)nc2c1COC2C (configuration not stated) | 4% | -0.78
CO[C@@H](CNC(=O)c1cn2c(n1)CNCC2)c1cccs1 | -9% | 1.4
O[C@H]1[C@H](NCc2ccccn2)[C@H]2CO[C@H](O2)[C@@H]1N1CCC(Cc2ccccc2)CC1 | -1% | 0.11
Cc1ocnc1CNC(=O)N1CC(F)C1 | -16% | 1.7
Cc1ccccc1CNc1ccnn1C(C)C | -14% | 1.97
Cc1nc([C@@H]2CCCN2c2cnccn2)cs1 | -5% | 0.58
CN(C)c1nc(N)nc(CN2CC(O)(c3ccc(Cl)cc3)C2)n1 | 8% | -1.67
CCCc1nc2cc(CCC(=O)Nc3cccc(Cl)c3)ccc2[nH]1 | -3% | 0.4
O=C(Nc1nccs1)c1cc2c(s1)CCCC2 | -13% | 1.11
c1cn(CCCn2ccnc2-c2ccc([C@@H]3CCCCO3)o2)cn1 | 6% | -1.06
Cc1nc(-c2nc(C[C@H]3CNCCO3)n(C3CCCCC3)n2)cs1 | -8% | 1.61
CCC(CC)(CNc1ccnc2cccnc12)C(=O)O | -8% | 0.98
CCN(Cc1ccco1)C(=O)c1ccc2noc(-c3ccccc3)c2c1 | 0% | 0
NC(=O)N1CCN2C(=O)N(Cc3cccnc3C(F)(F)F)C(=O)[C@@H]2C1 | 17% | -2.14
O=S(=O)(c1ccc(-c2cc(C(F)(F)F)on2)o1)N1CCCCCC1 | -4% | 0.59
CCC(C)C(NC(=O)NCCCC1C=NNC1=O)C(F)(F)F (configuration not stated) | 18% | -2.23
Cc1cnc2cc(C(=O)N[C@H]3CCC[C@H]3CO)ccn12 | -6% | 0.96
COc1ncccc1N(C)C(=O)c1cccc(-c2ccoc2)c1 | -7% | 0.59

Structure (SMILES) | % Inhibition | Z score
CC1(C)C[C@@]1(NC(=O)NC1CCC(OC(F)F)CC1)c1ccccc1 (some centres not stated) | -8% | 1.12
CC(=O)Nc1ccc(S(=O)(=O)N2CCOC3(CCOCC3)C2)cc1 | 6% | -0.99
COc1cccc(S(=O)(=O)N2CCc3nc(NC(=O)c4ccc(F)c(F)c4)sc3C2)c1 | 5% | -0.51
Cc1cc(C(=O)N2CC(C(=O)Nc3ncc(C)s3)C2)no1 | 3% | -0.47
CCc1nc(CN2C(=O)COc3ccc(S(=O)(=O)N4CCN(CC)CC4)cc32)no1 | -3% | 0.31
COc1ccc(-c2cc(C(=O)N3CCc4[nH]cnc4C3)[nH]n2)cc1 | -4% | 0.46
Cc1nc(N(C)C)nc(-c2ccccc2CO)c1C | -3% | 0.26
NS(=O)(=O)c1ccc(CCNC(=O)[C@@H]2CCCN3CCCC[C@H]23)cc1 | -4% | 0.9
CCn1c(CN2CCCCCC2)nc2cc(S(=O)(=O)N3CCCCC3)ccc21 | -7% | 1.02
O=C(CCCc1ccccc1)N1CCC(n2cnnc2C2CC2)CC1 | -4% | 0.75
Cc1c2c(=O)n(-c3nc4ccccc4s3)n(Cc3ccc(F)cc3)c2cc(=O)n1CCCN1CCOCC1 | 32% | -3.58
CC1CCN(C(=O)[C@H]2CCc3ncc(-c4ccc(F)cc4)n3C2)CC1 | -7% | 1.27
OC[C@H]1CCCN1Cc1nnc(-c2ccc(Br)cc2)o1 | 5% | -1.09
O=C(Cc1ccccc1Cl)N1CC(OCC(F)(F)F)C1 | 8% | -1.19
CCCc1ccc(-c2nccn2C[C@H]2CN(C(C)=O)CCO2)o1 | -6% | 0.71
Cn1cccc1-c1cc2n(n1)CCC(=O)N2CCCC(=O)NCCN1CCOCC1 | -8% | 1.59
CN1C[C@@H](c2nc(Cn3cc(Br)cn3)no2)NCC1=O | -7% | 1.45
O=C(c1nc2ccccc2s1)N1CCC[C@H](c2cc(F)ccc2F)C1 | -16% | 2.13
CCN(C(=O)c1cccc(-c2cc(F)ccc2C(C)=O)c1)[C@H]1COC[C@@H]1O | -5% | 1
CC(=O)Nc1nc(C(=O)N2CC3(CCOCC3)[C@@H]2C2CC2)cs1 | -2% | 0.31
CCN(CC)c1nc(N)cc(N2CC[C@@H](O)C2)n1 | -13% | 2.46
CNC[C@H]1CCCN1C(=O)c1cc2ccc(C)cc2nc1C | 1% | -0.07

Structure (SMILES) | % Inhibition | Z score
CC1=NO[C@@H](CNS(=O)(=O)c2cc(F)cc(Cl)c2)C1 | 10% | -1.12
CCc1nc(CN2CCOCC2)n(-c2ccc(C(F)(F)F)cc2)n1 | -7% | 0.94
CC(C)n1c(=O)c(-c2ccc(C(=O)NCc3ccc(N4CCOCC4)cc3)cc2)nc2cccnc21 | -5% | 0.73
COc1ccccc1NC(=O)C1C(=O)NC23CCCCC2C1c1ccccc1O3 (configuration not stated) | -8% | 1.04
CC[C@@H](COC)Nc1ncnc2sc(C(=O)N3CCCC3)c(C)c12 | -1% | 0.09
Cc1noc2ncnc(N[C@H]3CCCc4sccc43)c12 | -2% | 0.18
Cc1cc(Cl)ccc1/N=C(\NCCc1c(C)nn(C)c1C)NC(=O)c1ccc(F)cc1 | -3% | 0.65
Cc1ccc(CCNC(=O)c2ccccc2N2CCC(=O)NC2=O)s1 | 4% | -0.44
OCc1nnc(NCc2ccc(OCc3ccccc3)c(OCc3ccccc3)c2)o1 | -9% | 1.22
CC[C@H](NCc1sccc1Cl)c1c(C)nn(C)c1C | 12% | -1.5
Cn1ncc2c1C[C@@H](c1nc(-c3cncs3)no1)CC2 | -4% | 0.68
CC(C)C1=NO[C@H](C(=O)NCCNS(C)(=O)=O)C1 | -1% | 0.1
Cc1nc(-c2cnn(C)c2)oc1C(=O)NCCS(=O)(=O)C(C)C | -5% | 0.6
Cc1[nH]ncc1C(=O)N1CCC(F)(F)C1 | -18% | 2.09
Cc1ccccc1C(=O)Nc1cc(-c2nnc(C3CC3)o2)sc1C | -2% | 0.2
CCNC(=O)[C@@H]1CC[C@](C)(C(=O)NCCn2cnnn2)C1(C)C | -2% | 0.21
CN(CCn1ccnc1)Cc1noc2c1CCCC2 | 1% | -0.15
Cc1ccc(NC(=O)CCOC2CCOCC2)c(C)n1 | -5% | 0.54
CC(C)(C)OC(=O)N1CCC(CC(=O)NCc2nccnc2-c2cccs2)CC1 | -6% | 1.18
CC(CN1CCCC1=O)NC(=O)C(C)CCc1ccccc1F (configuration not stated) | -6% | 0.72
O=C(N[C@H](c1ncccn1)C1CC1)c1ccc(OC(F)F)cc1F | -11% | 1.44
COc1ccc(COCC(=O)NCCN2CCS(=O)(=O)CC2)cc1 | -11% | 1.46

Structure (SMILES) | % Inhibition | Z score
C[C@H]1Cc2cc(C(=O)NCCc3cnn[nH]3)ccc2O1 | 3% | -0.51
CN1CCC(Nc2nnc(-c3nc(C4CC4)no3)c3ccccc23)CC1 | -2% | 0.26
O=C(c1ccn2c(-c3ccccc3Br)nnc2c1)N1CCN(c2ccccc2)CC1 | -4% | 0.44
CCNC(=O)c1c(F)ccc(S(=O)(=O)CC2CC2)c1F | -8% | 0.95
COc1ccnc(N2CCc3[nH]nc([C@@H]4COc5ccccc5O4)c3C2)n1 | -10% | 1.84
Cc1onc(N)c1S(=O)(=O)N1CCN(Cc2ccncc2)CC1 | -10% | 1.55
C#Cc1cccc(N(C)C(=O)c2cc(-n3ccnc3)ccn2)c1 | -13% | 1.85
N#Cc1c(-c2ccc3c(c2)OCCO3)cc(-c2ccccn2)nc1N | -2% | 0.36
Cc1nnc(-c2coc(S(=O)(=O)N3CCCc4ccccc43)c2)o1 | -15% | 1.93
CCn1c(C)cc2cc(NC(=O)N3CC(N4CCCC[C@@H]4C)C3)ccc21 | -11% | 1.24
Cc1ccsc1C(=O)NC(C1CC1)C1CC1 | -7% | 0.92
CCN(CCOc1ccccc1C)C(=O)Nc1ccc(C)nc1 | -9% | 1.53
Cc1cc(C)n(C[C@H](C)NCc2noc(-c3ccco3)n2)n1 | 0% | -0.03
COC1(CNC(=O)NC2CC=CC2)CCC1 | 31% | -0.87
CC(=O)c1ccccc1C(=O)N1CCC(c2nccn2CC2CCC2)CC1 | -16% | 2.52
Cn1cnc2c1CCN(c1nccn3ccnc13)C2 | -8% | 0.98
Cc1occc1C(=O)N[C@@H]1COCC[C@@H]1OCc1cscn1 | -6% | 0.92
O=C1C2CCCN2C(=O)N1C1CCN(c2ccccn2)C1 (configuration not stated) | -11% | 1.68
CCn1nc(C2CC2)cc1C(=O)N1CC(=O)Nc2ccccc21 | -5% | 0.48
Cn1cc([C@H](NC(=O)N2CCCC(C)(C)CC2)c2ccc(F)cc2)cn1 | -14% | 1.94
